# Measured values reported in patent US9944700B2, “Notch2 binding molecules for treating respiratory diseases” (NOVARTIS AG, priority 2013, dated 2018).
# Assays:
# [1] = tested on: Human bronchial epithelial (HBE) cells; assay: IL-13-driven goblet cell metaplasia in ALI cultures; assay type: cell-based; conditions: ALI cultures (results not shown)
# Description: Human bronchial epithelial (HBE) cells and culture media were obtained from Lonza. Air-liquid interface cultures using passage 2 (P2) cells were performed as previously described (Danahay, H. et al., American journal of physiology. Lung cellular and molecular physiology 282, L226-236 (2002)). For three-dimensional culturing of HBE cells, P1 cells were trypsinized and resuspended (30,000 cells/ml) in HBE differentiation media containing 5% growth factor-reduced Matrigel (BD Biosciences). 20 μl of suspension was plated in each well of a 384-well plate (Greiner) pre-coated with 10 μl of a 25% solution of Matrigel (BD Biosciences) in HBE differentiation media. […] Three-dimensional cultures were analyzed at the time points indicated.
# Immunofluorescence of HBEC bronchospheres was performed as described previously for MCF10A cysts (Debnath, J. et al., Methods 30, 256-268 (2003) with the following modifications. After incubation with fluorescence-conjugated secondary antibodies, DNA was stained with a 1:1 mix of PBS and ProLong gold antifade containing DAPI. Confocal microscopy was performed at room temperature on a microscope (Zeiss LSM510 Meta) using an EC Plan-Neofluar 10×/0.30 dry objective (Zeiss), an EC Plan-Neofluor 20×/0.5 dry objective (Zeiss), a C-Apochromat 40×/1.2 W corr (Zeiss), or a C-Apochromat 63×/1.2 W Corr objective (Zeiss). […]
# [2] = tested on: IL-13 driven goblet cell metaplasia; assay: IL-13 mouse model, co-administration of anti-Notch2 antibodies; assay type: in vivo
# Description: RNA was isolated from 3D bronchosphere cultures with Trizol (Invitrogen), using manufacturer's specifications. To isolate RNA from mouse tissue, approximately 20 mg of tissue was placed in a 1.5 ml eppendorf tube with 1 ml of Buffer RLT Plus (Qiagen). A 5 mm stainless steel bead (Qiagen) was added to the tube, and the tissue was sheared using a Tissue Lyser II (Qiagen). RNA from the sheared tissue was purified using the RNeasy Plus Mini Kit (Qiagen), using manufacturer's specifications. TaqMan Reverse Trascription Reagents (Invitrogen) were used to generate cDNA from 1 μg of total RNA. Quantitative PCR was performed on a ViiA7 Real-Time PCR System (Applied Biosystems), using 40 ng of cDNA per reaction with the following Taqman probes (Applied Biosystems): MUC5AC, Hs01365601_m1; MUC5B, Hs00861588_m1; FOXA3, Hs00270130_m1; FOXJ1, Hs00230964_m1; DNAI2, Hs01001544_m1; TP63, Hs00978340_m1; ITGA6, Hs01041011_m1; GAPDH, Hs99999905_m1; Muc5ac, Mm012718_m1; Foxj1, Mm012367279_m1; Trp63, Mm00495788_m1; Gapdh, Mm99999915_g1.
# Female Balb/c mice (20-25 g) were obtained from Charles River (Morgate, UK). Mice were housed under specific pathogen free conditions and were provided with food and water ad libitum. Experiments were performed in accordance with the UK Animals Scientific Procedures Act 1986.
# Mice received 0.5 μg of recombinant mouse IL-13 (Ebiosciences, UK) or phosphate-buffered saline (PBS) intranasally on 3 consecutive (days 1, 2, 3). Mice received either 20 mg/kg neutralizing antibody against Notch2 (α-N2 D3 or α-N2 59R5) or control IgG, or PBS intraperitoneally 2 hours before intranasal challenge with either IL-13 or PBS, on days 1 and 3 only. Mice were euthanized 24 hours after the final IL-13 administration. The left lungs were excised, inflated with 10% neutral buffered formalin (NBF) and preserved in NBF. Lungs were embedded in paraffin wax and lung sections were obtained for each animal. Sections were stained with Periodic Acid-Schiff (PAS) stain for mucus.
# PAS positive staining was quantified in lung sections using Definiens Image Analysis software. Two distinct lung sections were analyzed per mouse and the total area of PAS positive staining within the sections was determined. The PAS positive staining was normalized to the area of tissue analyzed and represented as ‘Relative Area PAS Positive Mucus (%)’.
# Data are expressed as mean±SEM. Statistical significance was determined using a parametric one way ANOVA and Dunnetts post-test. GraphPad Prism (version 5.04) was used to generate graphs and perform statistical analysis. ***p<0.001 denotes statistically significant difference from relevant isotype control group.
molecule,measurement,setting,value
"D3: anti-Notch2 antagonist IgG1 antibody, heavy chain SEQ ID NO: 3 (N-terminal glutamine), light chain SEQ ID NO: 4; sole antibody in therapeutic models (antibody, Synthetic human sequence) heavy: QVQLVESGGGLVQPGGSLRLSCAAGYTFSSYGMSWVRQAPGKGLEWVSYIYPYSGATYYADSVKGRFTISADTSKNTAYLQMNSLRAEDTAVYYCARHSGYYRISSAMDVWGQGTLVTVSSASTKGPSVFPLAPSSKSTSGGTAALGCLVKDYFPEPVTVSWNSGALTSGVHTFPAVLQSSGLYSLSSVVTVPSSSLGTQTYICNVNHKPSNTKVDKRV[not shown - human IgG1 Fc] light: DIQMTQSPSSLSASVGDRVTITCRASQNIKRFLAWYQQKPGKAPKLLIYGASTRESGVPSRFSGSGSGTDFTLTISSLQPEDFATYYCQQYYRSPHTFGQGTKVEIKRTVAAPSVFIFPPSDEQLKSGTASVVCLLNNFYPREAKVQWKVDNALQSGNSQESVTEQDSKDSTYSLSSTLTLSKADYEKHKVYACEVTHQGLSSPVTKSFNRGEC",IL-13-driven goblet cell metaplasia,[1],completely inhibited
same,"effect on basal cell marker Trp63, qPCR of whole lung tissue","[2]; 20 mg/kg i.p. days 1 and 3, FIG. 6e",no effect
same,"ciliated cell marker Foxj1, qPCR of whole lung tissue","[2]; 20 mg/kg i.p. days 1 and 3, FIG. 6d",concomitant increase
same,"Muc5ac expression levels, qPCR of whole lung tissue RNA","[2]; 20 mg/kg i.p. days 1 and 3, confirms reduced goblet cell metaplasia, FIG. 6c",verified this observation
same,IL-13 driven goblet cell metaplasia (PAS staining of lung sections),"[2]; Balb/c mice, 20 mg/kg antibody i.p. 2 hours before intranasal IL-13, days 1 and 3, FIGS. 6a, 6b",completely blocked
